# Measured values as given in the supplement of paper PMC6609913.
# Where a name gives a salt, the structure may show the parent alone. ± gives the standard deviation of the averaged measurements. Over roughly 1,300 compounds, “normalised cell viability” has its median near 1; the lowest 2% begin near 0.14. This is one part of the list.
# Test system: V-C8 (BRCA2-deficient hamster cells)
# Assay: normalised cell viability (fraction of plate median); higher = more viable cells (less toxic)
# Details: 5 µM
# Outline: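 Hamster V-C8 cells with and without restored BRCA2 were exposed in 96-well plates to library drugs at 5 μM for 3 days (screen 1) or 6 days (screen 2). Cell viability was scored by resazurin assay, then median-plate normalised, averaging triplicate wells.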
Compound,normalised cell viability (treatment time: 3 days),normalised cell viability (treatment time: 6 days)
Cc1ccc(-c2ncc(Cl)cc2-c2ccc(S(C)(=O)=O)cc2)cn1 [Etoricoxib],0.95 ± 0.078,1.04 ± 0.047
NC12CC3CC(CC(C3)C1)C2 [Adamantamine fumarate],0.886 ± 0.064,0.899 ± 0.027
Cc1cc(=O)n(-c2ccccc2)n1C [Antipyrine],1.03 ± 0.014,1.05 ± 0.048
Clc1ccc(COC(Cn2ccnc2)c2ccc(Cl)cc2Cl)c(Cl)c1 (configuration not stated) [Miconazole],0.421 ± 0.048,0.473 ± 0.023
NS(=O)(=O)c1cc2c(cc1Cl)N=CNS2(=O)=O [Chlorothiazide],1.01 ± 0.077,1.018 ± 0.0027
CN[C@H](CC(C)C)C(=O)N[C@H]1C(=O)N[C@@H](CC(N)=O)C(=O)N[C@H]2C(=O)N[C@H]3C(=O)N[C@H](C(=O)N[C@H](C(=O)O)c4cc(O)cc(O)c4-c4cc3ccc4O)[C@H](O)c3ccc(c(Cl)c3)Oc3cc2cc(c3O[C@@H]2O[C@H](CO)[C@@H](O)[C@H](O)[C@H]2O[C@H]2C[C@](C)(N)[C@H](O)[C@H](C)O2)Oc2ccc(cc2Cl)[C@H]1O [Vancomycin hydrochloride],0.159 ± 0.01,0.141 ± 0.0064
CNS(=O)(=O)Cc1ccc2[nH]cc(CCN(C)C)c2c1 [Sumatriptan succinate],0.992 ± 0.049,0.957 ± 0.12
CC(C)COCC(CN(Cc1ccccc1)c1ccccc1)N1CCCC1 (configuration not stated) [Bepridil hydrochloride],0.398 ± 0.033,0.691 ± 0.011
NC(=O)c1ncn([C@@H]2O[C@H](CO)[C@@H](O)[C@H]2O)n1 [Ribavirin],0.684 ± 0.021,0.552 ± 0.025
CCOC(=O)[C@H](CCc1ccccc1)N[C@@H](C)C(=O)N1[C@H](C(=O)O)C[C@@H]2CCC[C@@H]21 [Ramipril],1.09 ± 0.029,1.15 ± 0.18
CCOc1ccc2c(c1)C(C)=CC(C)(C)N2 [Ethoxyquin],0.883 ± 0.014,1.2 ± 0.26
NS(=O)(=O)c1cc(C(=O)O)c(NCc2ccco2)cc1Cl [Furosemide],1.04 ± 0.058,1.06 ± 0.079
Cc1cc(C2CCCCC2)n(O)c(=O)c1 [Ciclopirox ethanolamine],0.207 ± 0.012,0.23 ± 0.015
COc1cc(C(=O)NS(=O)(=O)c2ccccc2C)ccc1Cc1cn(C)c2ccc(NC(=O)OC3CCCC3)cc12 [Zafirlukast],1.06 ± 0.015,1.04 ± 0.033
CC(C)(C)C(=O)OCOC(=O)[C@@H]1N2C(=O)[C@@H](NC(=O)[C@H](N)c3ccccc3)[C@H]2SC1(C)C [Pivampicillin],1.02 ± 0.075,1.01 ± 0.1
O=C1NCN(c2ccccc2)C12CCN(CCCC(c1ccc(F)cc1)c1ccc(F)cc1)CC2 [Fluspirilen],0.472 ± 0.045,0.235 ± 0.12
N=C(N)NC(=O)c1nc(Cl)c(N)nc1N [Amiloride hydrochloride dihydrate],0.998 ± 0.021,0.953 ± 0.12
CCCCOC(=O)c1ccc(N)cc1 [Butamben],0.601 ± 0.041,0.833 ± 0.059
CCCCC1=NC2(CCCC2)C(=O)N1Cc1ccc(-c2ccccc2-c2nnn[nH]2)cc1 [Irbesartan],1.06 ± 0.026,1.12 ± 0.068
N[C@@H]1CCCCN(c2c(F)cc3c(=O)c(C(=O)O)cn(C4CC4)c3c2Cl)C1 [Besifloxacin hydrochloride],1.11 ± 0.095,1.04 ± 0.032
CCOc1ccccc1OCC1CNCCO1 (configuration not stated) [Viloxazine hydrochloride],1.02 ± 0.038,0.953 ± 0.061
CC[C@H]1OC(=O)[C@H](C)[C@@H](O[C@H]2C[C@@](C)(OC)[C@@H](O)[C@H](C)O2)[C@H](C)[C@@H](O[C@@H]2O[C@H](C)C[C@H](N(C)C)[C@H]2O)[C@](C)(OC)C[C@@H](C)C(=O)[C@H](C)[C@@H](O)[C@]1(C)O [Clarithromycin],1.03 ± 0.029,1.1 ± 0.025

Compound,normalised cell viability (treatment time: 3 days),normalised cell viability (treatment time: 6 days)
COCC1=C(C(=O)OC(C)OC(=O)OC(C)C)N2C(=O)[C@@H](NC(=O)/C(=N\OC)c3csc(N)n3)[C@H]2SC1 (some centres not stated) [Cefpodoxime proxetil],1.18 ± 0.025,1.06 ± 0.086
CCN(CC)CCOC(=O)C(c1ccccc1)C1CCCCC1 (configuration not stated) [Drofenine hydrochloride],1.02 ± 0.038,1.02 ± 0.07
COc1cc(Cc2cnc(N)nc2N)cc(OC)c1OC [Trimethoprim],1.06 ± 0.054,1 ± 0.059
CO[C@@]1(NC(=O)Cc2cccs2)C(=O)N2C(C(=O)O)=C(COC(N)=O)CS[C@@H]21 [Cefoxitin sodium salt],1.02 ± 0.033,1.01 ± 0.023
CC(=O)c1ccc2c(c1)N(CCCN1CCC(CCO)CC1)c1ccccc1S2 [Piperacetazine],0.84 ± 0.1,0.89 ± 0.079
O=C(CCCN1CCC(O)(c2ccc(Br)cc2)CC1)c1ccc(F)cc1 [Bromperidol],1.09 ± 0.19,0.955 ± 0.026
CCCCC(CC)CN1CN(CC(CC)CCCC)CC(C)(N)C1 (configuration not stated) [Hexetidine],0.973 ± 0.094,1.04 ± 0.085
COc1cc2c(cc1OC)C(=O)C(CC1CCN(Cc3ccccc3)CC1)C2 (configuration not stated) [Donepezil hydrochloride],0.957 ± 0.087,0.983 ± 0.011
CN1C(C(=O)Nc2ccccn2)=C(O)c2sccc2S1(=O)=O [Tenoxicam],1.03 ± 0.043,1.02 ± 0.019
Cc1ncc([N+](=O)[O-])n1CC(O)CCl (configuration not stated) [Ornidazole],0.945 ± 0.069,1.34 ± 0.32
Cc1cccc(C)c1NC(=O)C1CCCCN1C (configuration not stated) [Mepivacaine hydrochloride],0.981 ± 0.031,0.988 ± 0.053
C=C[C@H]1CN2CC[C@H]1C[C@@H]2[C@@H](O)c1ccnc2ccc(OC)cc12 [Quinidine hydrochloride monohydrate],0.997 ± 0.0082,0.876 ± 0.16
C[C@]12CC[C@H]3C(=CCc4cc(O)ccc43)[C@@H]1CCC2=O [Equilin],1.03 ± 0.045,0.974 ± 0.031
CN(C)CCC=C1c2ccccc2CCc2ccccc21 [Amitryptiline hydrochloride],0.856 ± 0.018,0.893 ± 0.051
Cc1ccnc2c1NC(=O)c1cccnc1N2C1CC1 [Nevirapine],0.942 ± 0.023,0.994 ± 0.039
Cc1[nH]c(=O)c(C#N)cc1-c1ccncc1 [Milrinone],1.2 ± 0.26,0.981 ± 0.038
CS(=O)(=O)c1ccc(C2=C(c3ccccc3)C(=O)OC2)cc1 [Rofecoxib],1.02 ± 0.065,1.02 ± 0.016
Cn1c(=O)c2[nH]cnc2n(C)c1=O [Aminophylline],1.08 ± 0.035,1 ± 0.042
COc1ccc(-c2cc(=O)c3c(O)cc(O[C@@H]4O[C@H](CO[C@@H]5O[C@@H](C)[C@H](O)[C@@H](O)[C@H]5O)[C@@H](O)[C@H](O)[C@H]4O)cc3o2)cc1O [Diosmin],1.04 ± 0.065,1.01 ± 0.014
CCCCCCCN(CC)CCCC(O)c1ccc(NS(C)(=O)=O)cc1 (configuration not stated) [Ibutilide fumarate],1.02 ± 0.0081,0.983 ± 0.025
c1ccc2[nH]c(-c3cscn3)nc2c1 [Tiabendazole],1.07 ± 0.041,1.02 ± 0.028
CN1CC2c3ccccc3Oc3ccc(Cl)cc3C2C1 (configuration not stated) [Asenapine maleate],0.92 ± 0.083,0.97 ± 0.11

Compound,normalised cell viability (treatment time: 3 days),normalised cell viability (treatment time: 6 days)
CC1CS(=O)(=O)CCN1/N=C/c1ccc([N+](=O)[O-])o1 (configuration not stated) [Nifurtimox],1.04 ± 0.077,1 ± 0.06
C[C@]12CC[C@@H]3c4ccc(O)cc4CC[C@H]3[C@@H]1CCC2=O [Estrone],0.997 ± 0.015,1.01 ± 0.028
COc1cc(C(=O)NC2CCCNC2)cc(OC)c1OC (configuration not stated) [Troxipide],1.03 ± 0.065,1 ± 0.022
CN(C)[C@@H]1C(O)=C(C(N)=O)C(=O)[C@@]2(O)C(O)=C3C(=O)c4c(O)ccc(Cl)c4[C@@](C)(O)[C@H]3C[C@@H]12 [Chlortetracycline hydrochloride],1.1 ± 0.034,1.08 ± 0.031
CC(=O)N(CC(C)C(=O)O)c1c(I)cc(I)c(N)c1I (configuration not stated) [Iocetamic acid],1.02 ± 0.023,0.976 ± 0.035
CCCCC(C)(O)C/C=C/[C@H]1[C@H](O)CC(=O)[C@@H]1CCCCCCC(=O)OC (mixture of isomers) [Misoprostol],1.03 ± 0.024,0.925 ± 0.028
CNCCC(Oc1ccccc1OC)c1ccccc1 (configuration not stated) [Nisoxetine hydrochloride],1.08 ± 0.063,1.05 ± 0.064
COc1ccccc1O [Guaiacol],1.014 ± 0.0094,1.06 ± 0.094
O=C(O)CCC(=O)Nc1ccc(S(=O)(=O)Nc2nccs2)cc1 [Succinylsulfathiazole],0.998 ± 0.016,1.03 ± 0.069
COc1cnc(NS(=O)(=O)c2ccc(N)cc2)nc1 [Sulfameter],1.07 ± 0.025,1.02 ± 0.093
Cc1cccc(CN2CCN(C(c3ccccc3)c3ccc(Cl)cc3)CC2)c1 (configuration not stated) [Meclozine dihydrochloride],1.09 ± 0.11,1.07 ± 0.026
CCOC(=O)C1=C[C@]2(CC)CCCN3CCc4c(n1c1ccccc41)[C@@H]32 [Vinpocetine],1.12 ± 0.093,1.14 ± 0.066
COc1ccc2cc([C@@H](C)C(=O)O)ccc2c1 [(R) -Naproxen sodium salt],0.91885 ± 0.00085,0.978 ± 0.043
Nc1nc(=O)c2c([nH]1)NC[C@@H](CNc1ccc(C(=O)N[C@@H](CCC(=O)O)C(=O)O)cc1)N2C=O [Folinic acid calcium salt],1.05 ± 0.036,1.11 ± 0.06
CCCCC(CC)CNC(=N)NC(=N)NCCCCCCNC(=N)NC(=N)NCC(CC)CCCC (configuration not stated) [Alexidine dihydrochloride],0.124 ± 0.0044,0.132 ± 0.0043
COC(=O)[C@@H]1[C@H]2C[C@H]3c4[nH]c5ccccc5c4CCN3C[C@@H]2CC[C@@H]1O [Yohimbine hydrochloride],1.08 ± 0.11,0.996 ± 0.031
CC1(C)NC(=O)N(c2ccc([N+](=O)[O-])c(C(F)(F)F)c2)C1=O [Nilutamide],1.01 ± 0.013,0.938 ± 0.044
CCC1=C(C)CN(C(=O)NCCc2ccc(S(=O)(=O)NC(=O)N[C@H]3CC[C@H](C)CC3)cc2)C1=O [Glimepiride],1.01 ± 0.029,1.12 ± 0.042
O=C1CCc2cc(OCCCCc3nnnn3C3CCCCC3)ccc2N1 [Cilostazol],1.09 ± 0.1,0.932 ± 0.094
CCS(=O)(=O)CCn1c([N+](=O)[O-])cnc1C [Tinidazole],1.04 ± 0.027,1.21 ± 0.24
CCCCOc1cc(C(=O)NCCN(CC)CC)c2ccccc2n1 [Dibucaine],0.963 ± 0.036,0.967 ± 0.065
O=P(O)(O)C(Cl)(Cl)P(=O)(O)O [Clodronate],1.04 ± 0.026,1.07 ± 0.051
